pIC50: −log10 of the molar value. IC50 is the fitted dose that halves viability relative to control wells, and lower means more sensitive; a fit beyond the top or the lowest dose is shown as a bound at that dose. AUC is the area under the same curve over the 256-fold range up to the top dose, as a fraction; values near 1 show little effect. Drugs with an entry number were screened twice under separate entries, and the two screens often disagree.

Compound in the assay: CS(=O)(=O)N1CCN(Cc2cc3nc(-c4cccc5[nH]ncc45)nc(N4CCOCC4)c3s2)CC1 [GDC0941]
Briefly: Viability of human cancer cell lines after 72 h of drug (GDSC screen). To be noted: screen: GDSC drug entry 1058. Here is the method: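 Human cancer cell lines in 384-well plates, medium with 10% serum, drug for 72 h over a 256-fold dose range (nine 2-fold or five 4-fold steps up to the top dose). Adherent lines were fixed and stained with the nucleic acid dye Syto60, suspension lines read with resazurin; signal relative to control wells, capped at 0 and 100%. One two-parameter sigmoid per drug and line, fitted in a mixed model over all curves with the slope shared within a line.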
As usually defined, the pIC50 is −log10 of the IC50, conventionally taken in molar units. In the case of “SU-DHL-6 (B-cell lymphoma, suspension, top dose 4 µM)”, the AUC was 0.15 and the pIC50 was 7.49.

Regarding “SU-DHL-8 (B-cell lymphoma, suspension, top dose 4 µM)”, the AUC is 0.968 and the pIC50 is under 5.40.

Regarding “SU-DHL-10 (B-cell lymphoma, suspension, top dose 4 µM)”, the AUC was determined as 0.583 and the pIC50 was 6.40.

As to “SU-DHL-16 (B-cell lymphoma, suspension, top dose 4 µM)”, the AUC stood at 0.567 and the pIC50 is 6.44.

Consider “SUIT-2 (pancreas, adherent, top dose 2 µM)”, for which the AUC was found to be 0.891 and the pIC50 is under 5.70.

In the case of “SUP-B8 (B-cell leukaemia, suspension, top dose 4 µM)”, the AUC is 0.755 and the pIC50 is 5.87.

In the case of “SUP-B15 (lymphoblastic leukaemia, suspension, top dose 4 µM)”, the AUC came to 0.716 and the pIC50 is 6.00.

Turning to “SUP-HD1 (Hodgkin lymphoma, suspension, top dose 4 µM)”, the AUC was determined as 0.788 and the pIC50 was 5.78.

Regarding “SUP-M2 (anaplastic large cell lymphoma, suspension, top dose 4 µM)”, the AUC was found to be 0.99 and the pIC50 was under 5.40.

As to “SUP-T1 (T-cell lymphoblastic leukaemia, suspension, top dose 4 µM)”, the AUC stood at 0.753 and the pIC50 was 5.91.

Regarding “SW13 (adrenal gland, adherent, top dose 2 µM)”, the AUC came out at 0.953 and the pIC50 is under 5.70.

Turning to “SW620 (large intestine, adherent, top dose 4 µM)”, the AUC was determined as 0.988 and the pIC50 is under 5.40.

Take SW626 (ovary, adherent, top dose 4 µM): the AUC is 0.884 and the pIC50 is under 5.40.

Turning to “SW684 (fibrosarcoma, adherent, top dose 4 µM)”, the AUC is 0.82 and the pIC50 was 5.41.

For SW756 (cervix, adherent, top dose 4 µM), the AUC was 0.879 and the pIC50 is under 5.40.

As to “SW780 (bladder, adherent, top dose 4 µM)”, the AUC came to 0.858 and the pIC50 was 5.42.

As for “SW900 (lung squamous cell carcinoma, adherent, top dose 2 µM)”, the AUC is 0.962 and the pIC50 was under 5.70.

Regarding “SW948 (large intestine, adherent, top dose 4 µM)”, the AUC came to 0.981 and the negative logarithm of the IC50 (pIC50) is under 5.40.

Take “SW954 (urogenital system, adherent, top dose 4 µM)”: the AUC worked out at 0.868 and the pIC50 is 5.43.

In the case of “SW962 (urogenital system, adherent, top dose 4 µM)”, the AUC was found to be 0.738 and the pIC50 is 5.84.

For “SW982 (soft tissue, adherent, top dose 4 µM)”, the AUC was 0.844 and the pIC50 was 5.53.

Turning to “SW1271 (small cell lung carcinoma, adherent, top dose 4 µM)”, the AUC was determined as 0.892 and the pIC50 was under 5.40.

For the cell line “SW1417 (large intestine, adherent, top dose 4 µM)”, the AUC was determined as 0.962 and the pIC50 is under 5.40.

For “SW1710 (bladder, adherent, top dose 4 µM)”, the AUC stood at 0.706 and the pIC50 is 6.01.

On to “SW1783 (glioma, adherent, top dose 4 µM)”, for which the AUC amounted to 0.861 and the pIC50 is 5.54.

With “Saos-2 (osteosarcoma, adherent, top dose 4 µM)”, the AUC stood at 0.69 and the pIC50 is 5.97.

Regarding SiHa (cervix, adherent, top dose 4 µM), the AUC amounted to 0.953 and the pIC50 is under 5.40.

With T47D (breast, adherent, top dose 4 µM), the AUC was determined as 0.605 and the pIC50 is 6.25.

“T84 (large intestine, adherent, top dose 4 µM)”: the AUC turned out to be 0.989 and the pIC50 is under 5.40.

Consider T98G (glioma, adherent, top dose 4 µM), for which the AUC turned out to be 0.776 and the pIC50 is 5.83.

Consider “T-T (oesophagus, adherent, top dose 4 µM)”, for which the AUC turned out to be 0.72 and the pIC50 was 5.98.

On to “TC-71 (Ewing sarcoma, adherent, top dose 4 µM)”, for which the AUC was 0.854 and the pIC50 is 5.63.

In the case of “TC-YIK (cervix, suspension, top dose 4 µM)”, the AUC turned out to be 0.887 and the pIC50 is 5.47.

With “TCCSUP (bladder, adherent, top dose 4 µM)”, the AUC worked out at 0.853 and the pIC50 was 5.41.

Consider “TE-1 (oesophagus, adherent, top dose 4 µM)”, for which the AUC was determined as 0.862 and the pIC50 was under 5.40.

Turning to “TE-4 (oesophagus, adherent, top dose 4 µM)”, the AUC worked out at 0.787 and the pIC50 was 5.76.

Turning to “TE-5 (oesophagus, adherent, top dose 4 µM)”, the AUC came to 0.916 and the pIC50 was under 5.40.

For the cell line “TE-6 (oesophagus, adherent, top dose 4 µM)”, the AUC was 0.854 and the pIC50 was under 5.40.

As for “TE-8 (oesophagus, adherent, top dose 4 µM)”, the AUC came to 0.827 and the pIC50 was 5.57.

As for “TE-9 (oesophagus, adherent, top dose 4 µM)”, the AUC was determined as 0.974 and the pIC50 is under 5.40.

In the case of “TE-10 (oesophagus, adherent, top dose 4 µM)”, the AUC amounted to 0.953 and the pIC50 was under 5.40.

For “TE-11 (oesophagus, adherent, top dose 4 µM)”, the AUC was determined as 0.897 and the pIC50 is under 5.40.

Turning to “TE-12 (oesophagus, suspension, top dose 4 µM)”, the AUC was determined as 0.67 and the pIC50 is 6.08.

With “TE-15 (oesophagus, suspension, top dose 4 µM)”, the AUC amounted to 0.621 and the pIC50 was 6.25.

Turning to “TGBC1TKB (biliary tract, adherent, top dose 4 µM)”, the AUC was 0.847 and the pIC50 is 5.53.

For the cell line “TGBC11TKB (stomach, adherent, top dose 4 µM)”, the AUC was 0.938 and the pIC50 is under 5.40.

“TGW (neuroblastoma, adherent, top dose 4 µM)”: the AUC came out at 0.753 and the pIC50 was 5.93.

In the case of “THP-1 (acute myeloid leukaemia, suspension, top dose 4 µM)”, the AUC was determined as 0.788 and the pIC50 is 5.81.

For TK10 (kidney, adherent, top dose 4 µM), the AUC was found to be 0.753 and the pIC50 was 5.80.

Turning to “TK (B-cell lymphoma, suspension, top dose 4 µM)”, the AUC turned out to be 0.778 and the pIC50 was 5.83.

In the case of “TMK-1 (stomach, adherent, top dose 4 µM)”, the AUC was 0.593 and the pIC50 is 6.34.

For the cell line “TOV-21G (ovary, adherent, top dose 4 µM)”, the AUC is 0.83 and the pIC50 is 5.55.

For the cell line “TOV-112D (ovary, adherent, top dose 4 µM)”, the AUC stood at 0.813 and the pIC50 is 5.66.

As to “TT2609-C02 (thyroid, adherent, top dose 4 µM)”, the AUC came to 0.798 and the pIC50 was 5.69.

Turning to TT (thyroid, adherent, top dose 2 µM), the AUC came out at 0.98 and the pIC50 was under 5.70.

For “TUR (B-cell lymphoma, suspension, top dose 4 µM)”, the AUC came to 0.526 and the pIC50 is 6.53.

Turning to TYK-nu (ovary, adherent, top dose 4 µM), the AUC worked out at 0.76 and the pIC50 is 5.82.

With U031 (kidney, adherent, top dose 2 µM), the AUC was determined as 0.972 and the pIC50 is under 5.70.

Turning to “U-118-MG (glioma, adherent, top dose 4 µM)”, the AUC turned out to be 0.902 and the pIC50 was under 5.40.

As for “U-698-M (B-cell leukaemia, suspension, top dose 4 µM)”, the AUC is 0.821 and the pIC50 was 5.63.

In the case of “UACC-62 (melanoma, adherent, top dose 4 µM)”, the AUC was 0.959 and the pIC50 was under 5.40.

For “UACC-257 (melanoma, adherent, top dose 4 µM)”, the AUC is 0.973 and the pIC50 was under 5.40.

For the cell line “UACC-893 (breast, adherent, top dose 2 µM)”, the AUC came out at 0.937 and the pIC50 is under 5.70.

For “UWB1.289 (ovary, adherent, top dose 4 µM)”, the AUC was determined as 0.779 and the pIC50 is 5.59.

As to “VA-ES-BJ (soft tissue, adherent, top dose 4 µM)”, the AUC came to 0.761 and the pIC50 is 5.83.

For the cell line “VAL (B-cell lymphoma, suspension, top dose 4 µM)”, the AUC was found to be 0.761 and the pIC50 is 5.84.

On to “VCaP (prostate, adherent, top dose 4 µM)”, for which the AUC was 0.941 and the pIC50 is under 5.40.

Regarding “VM-CUB-1 (bladder, adherent, top dose 2 µM)”, the AUC came to 0.956 and the pIC50 was under 5.70.
